Laboratory results as given in PubChem BioAssay AID1347044 (National Center for Advancing Translational Sciences (NCATS), 2019).
This is one part of the list. These are further read-outs of the screen, such as a control signal, another cell line or another target. No call is given for them. The list favours compounds with an active or inconclusive main result. The note in brackets gives the kind of curve behind each potency; many fits are weak.

assay: Natriuretic polypeptide receptor (hNpr1) antagonism - Confirmation; conditions: HEK293 hNpr1 cGMP GloSensor luminescence, ANP-stimulated; measured here: HEK-hNpr1 cytotoxicity, CellTiter-Glo; further: nearly all actives have a fitted effect of over 70% in size
Outline: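 HEK293 cells expressing hNpr1 and the pGS-40F GloSensor cGMP sensor, loaded with 2% GloSensor reagent for 2 h, then treated 30 min with compound at room temperature. Luciferase luminescence read before and 20 min after 0.1 nM hNppA stimulation.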
Tags describe the fitted curve by direction and shape.

| SMILES | CC50 |
| --- | --- |
| O=C1COc2ccc(-c3ccc4c(c3)OCO4)nc2CN1Cc1ccc(F)cc1 | 62.7 µM [falling, single point] |
| CCNC(=O)O[C@@H]1CO[C@H]2[C@@H]1OC[C@@H]2Nc1nccc(-c2ccc(-c3ccccc3)cc2)n1 | 8.62 µM [falling, partial curve] |
| Cc1nn2c(c1-c1ccccc1OCc1ccccc1)N(CC1CC1)CCC2 | 70.3 µM [falling, single point] |
| CN1C[C@@H](NC(=O)Nc2ccc(Cl)cc2)C[C@H]1c1nc(-c2ccc(F)cc2)no1 | 19.8 µM [falling, partial curve] |
| O=C(CC1CCCCC1)N1CCC(n2cc(-c3nc(-c4ccccc4)no3)nn2)CC1 | 21.7 µM [falling, partial curve] |
| COc1cccc(-c2noc(CC3CCN(C(=O)c4ccc(N(C)C)cc4)CC3)n2)c1 | 19.3 µM [falling, partial curve] |
| O=C1N(C2CCN(Cc3ccc(C(F)(F)F)cc3)CC2)Cc2cccn21 | 21.7 µM [falling, partial curve] |
| COc1ccc(CCNC(=O)c2noc(-c3ccc(C)cc3)n2)cc1OC | 38.5 µM [falling, single point] |
| O=C(Cc1c[nH]c2ncc(-c3ccccc3Oc3ccccc3)cc12)N1CCOCC1 | 31.4 µM [falling, partial curve] |
| O=C1COc2ccc(OCc3cncs3)nc2CN1CCOc1ccccc1 | 31.4 µM [falling, partial curve] |
| CCc1noc(CC2CCOC3(CCN(S(=O)(=O)c4ccc(C(C)C)cc4)CC3)C2)n1 (centres undefined) | 17.2 µM [falling, partial curve] |
| Cc1ccc(CN2CCN(C(=O)c3ccc4c(c3)C(O)CCCCCN4C)CC2)cc1 (centres undefined) | 19.3 µM [falling, partial curve] |
| COc1cccc(CN2CCOC3(CCN(Cc4ccc(C#N)cc4)CC3)C2=O)c1 | 31.4 µM [falling, partial curve] |
| COc1ccc(C2Cn3nnc(C(=O)N4CCN(C(=O)c5ccc(C)s5)CC4)c3CO2)cc1 (centres undefined) | 21.7 µM [falling, partial curve] |
| COc1cccc(C(=O)N2CCc3onc(-c4cccc(F)c4)c3C2)c1OC | 15.3 µM [falling, partial curve] |
| Cc1cccc(-n2ncc3c2CCCC3NC(=O)c2c(F)ccc(F)c2F)c1C (centres undefined) | 17.2 µM [falling, partial curve] |
| N#Cc1cccc(-c2ccnc(N[C@H]3CO[C@H]4[C@@H]3OC[C@H]4OC(=O)Nc3ccc(Oc4ccccc4)cc3)n2)c1 | 5.44 µM [falling, full curve, poor fit] |
| COc1ccc(-c2noc(CC3CCN(C(=O)Cc4ccc(C)cc4)CC3)n2)cc1 | 24.3 µM [falling, partial curve] |
| Cc1cccc(NC(=O)Cn2c(N(C)Cc3ccccc3)nc(C)cc2=O)c1 | 19.3 µM [falling, partial curve] |
| CCc1noc(CC2CCOC3(CCN(S(=O)(=O)c4ccccc4Cl)CC3)C2)n1 (centres undefined) | 30.6 µM [falling, single point] |

| SMILES | CC50 |
| --- | --- |
| O=C(c1ccc(F)cc1)N1CCC(Cc2nc(-c3ccc(F)cc3)no2)CC1 | 3.06 µM [falling, full curve] |
| CSc1nccc(N2CCC3(CC2)CC(=O)N(CC(C)C)C3)n1 | 5.44 µM [falling, full curve] |
| CC1Oc2ccc(NC(=O)Cc3ccccc3)cc2CN(Cc2ccc(Cl)cc2)C1=O (centres undefined) | 43.2 µM [falling, single point] |
| Cc1nc(N2CCC(NC(=O)Cc3ccccc3Cl)CC2)cc(C(F)(F)F)n1 | 13.7 µM [falling, partial curve] |
| O=C(c1ccccc1)N1CCC(C(=O)N2CCC(Cc3nc(-c4ccc(F)cc4)no3)CC2)CC1 | 17.2 µM [falling, partial curve] |
| OC1CC(c2cc(N3CCN(c4nsc5ccccc45)CC3)ncn2)C1 (centres undefined) | 4.85 µM [falling, full curve] |
| COc1ccc(C(C)NC(=O)C2CCN(c3cc(C(F)(F)F)ncn3)CC2)cc1 (centres undefined) | 21.7 µM [falling, partial curve] |
| Cc1ccc(CNC(=O)C2CCN(c3cc(C(F)(F)F)ncn3)CC2)cc1 | 19.3 µM [falling, partial curve] |
| CC1=NS(=O)(=O)N(C)C=C1C(=O)OCc1nc(-c2cccc(C)c2)no1 | 21.7 µM [falling, partial curve] |
| CCN(CC)C(=O)N1CCC(Oc2ccc(-c3noc(COC)n3)cc2)C1 (centres undefined) | 15.3 µM [falling, partial curve] |
| FC(F)(F)c1ccc(N2C3CCC2CN(Cc2cccc(-c4cccnc4)c2)C3)cc1 | 7.69 µM [falling, partial curve] |
| CCNC(=O)N1CCC(Cc2ccc(C(=O)NCCc3c[nH]c4ccccc34)cc2)CC1 | 24.3 µM [falling, partial curve] |
| CCOc1ccc(C(=O)N2CCN(c3cc(-c4ccc(Cl)cc4)[nH]n3)CC2)cc1OCC | 19.3 µM [falling, partial curve] |
| COc1ccccc1Nc1cnc2ccc(N(C)Cc3cccnc3)nn12 | 35.3 µM [falling, partial curve] |
| O=C(c1ccc(F)cc1)N1CCCC(n2cc(-c3nc(-c4ccccc4)no3)nn2)C1 (centres undefined) | 24.3 µM [falling, partial curve] |
| O=C(c1ccc(Br)cc1)N1CCN(c2cc(-c3ccc(Cl)cc3)[nH]n2)CC1 | 21.7 µM [falling, partial curve] |
| COc1ccc(OCC(=O)N2CCC(Cc3nc(-c4ccc(OC)cc4)no3)CC2)cc1 | 19.3 µM [falling, partial curve] |
| COC(=O)c1cccc(NC(=S)N[C@H]2CO[C@H]3[C@@H]2OC[C@@H]3n2cc(-c3ccccc3)nn2)c1 | 21.7 µM [falling, partial curve] |
| COc1ccc(-c2noc(CC3CCN(C(=O)c4ccc(C)nc4)CC3)n2)cc1 | 7.69 µM [falling, full curve] |
